{"source": "PubChem BioAssay AID1671194", "about": "(National Center for Advancing Translational Sciences (NCATS), 2021)", "note": "In all, about 140,000 compounds went through this assay and about 240 (0.17%) were called active. The inconclusive results got no clear call from the source; some entries with a clear call stand among them for comparison. Calls come from the whole dose curve; as a rule, active = well fitted inhibition curve with a large enough effect; inconclusive = small, poorly fitted or top-dose-only effect; inactive = no such curve, though single readings can be large or run the other way. Potencies beside an inconclusive call are fits to weak or partial responses and may not hold up. Potency is the fitted concentration of half-maximal effect; tags give direction and shape of the fitted curve.", "data": [{"assay": "Primary qHTS assay for inhibitors of alpha-synuclein gene (SNCA) expression; note: nearly all actives have a fitted effect of over 45% in size", "conditions": "HEK-293 SNCA-luciferase knock-in, luminescence, 24 h; series mostly up to 57.2 µM", "values": [{"smiles": "O=C(CCCc1ccccc1)NC1CCN(c2cc(-c3ccccc3)[nH]n2)CC1", "Potency": "inactive"}, {"smiles": "COc1ccc(-c2cnc(Nc3ccccc3)c3c2CCO3)cn1", "Potency": "inactive"}, {"smiles": "O=C(NCCCN1CCN(c2cccc(Cl)c2)CC1)c1ccc2nc(Cc3ccccc3)oc2c1", "Potency": "inconclusive: 15.8 µM [inhibitor, single point]"}, {"smiles": "Cn1cccc1CN1CCC2(CC1)CN[S+](=O)([O-])c1cccnc1O2", "Potency": "inconclusive: 3.16 µM [inhibitor, partial curve, poor fit]"}, {"smiles": "Cc1cc(F)ccc1OC1CN(Cc2ccc(C(F)(F)F)cc2)C1", "Potency": "inactive"}, {"smiles": "Cc1cc2cc(-c3c(C)noc3C)nc(NCC3CC3)c2o1", "Potency": "inactive"}, {"smiles": "O=C(CSc1nc2c([nH]c3ccccc32)c(=O)n1-c1ccccc1F)Nc1cccc(C(F)(F)F)c1", "Potency": "inconclusive: 39.8 µM [inhibitor, single point]"}, {"smiles": "CC(C)CN1CCN(C(=O)CCC2CCN(c3cc(NC4CC4)ncn3)CC2)CC1", "Potency": "inconclusive: 25.1 µM [inhibitor, single point]"}, {"smiles": "COC(=O)CCN(c1ccccc1)C(CNS(=O)(=O)c1ccccc1)c1ccccc1", "note": "(stereo not given)", "Potency": "inconclusive: 35.5 µM [inhibitor, partial curve, poor fit]"}, {"smiles": "O=C(C1CC1)N1CCC(Cc2noc(-c3ccncc3)n2)C1", "note": "(stereo not given)", "Potency": "inconclusive: 3.16 µM [inhibitor, full curve]"}, {"smiles": "CC1Oc2ccc(NC(=O)c3c(F)cccc3F)cc2CN(Cc2ccccc2F)C1=O", "note": "(stereo not given)", "Potency": "inactive"}, {"smiles": "CCCCOc1ccccc1C1CC(=O)Nc2cc(C)c(C)cc21", "note": "(stereo not given)", "Potency": "inconclusive: 12.6 µM [inhibitor, partial curve, poor fit]"}, {"smiles": "O=C(NC1CC1)C1(CCO)CCN(c2ncccn2)C1", "note": "(stereo not given)", "Potency": "inactive"}, {"smiles": "O=c1[nH]nc2n1CCN(CC1CCCCC1)CC2", "Potency": "inactive"}, {"smiles": "Cc1nc2cc(-c3cccc(F)c3)nn2c(C)c1CCC(=O)NC(C)c1ccccc1", "note": "(stereo not given)", "Potency": "inconclusive: 39.8 µM [inhibitor, single point]"}, {"smiles": "COCCOCc1nc(C2CCCN2C(=O)c2ccccn2)no1", "note": "(stereo not given)", "Potency": "inconclusive: 1.41 µM [inhibitor, full curve]"}, {"smiles": "Cc1nc(-c2ccccc2)n(CC(=O)Nc2cccc(Cl)c2)c(=O)c1CCO", "Potency": "inconclusive: 39.8 µM [inhibitor, single point]"}, {"smiles": "O=C(NCCC1CCN(C(=O)Nc2ccccc2)CC1)c1ccc(F)cc1", "Potency": "inactive"}, {"smiles": "Cc1ccc(NC(=O)O[C@@H]2CC[C@]3(C)[C@H](CC[C@H]4OC(=O)C[C@H]43)[C@]2(C)CO)cc1", "Potency": "inactive"}, {"smiles": "CC1=C(c2ccc(C)c(C)c2)S(=O)(=O)N=C1N1CCC(C(=O)NCc2ccc(N(C)C)cc2)CC1", "Potency": "inconclusive: 39.8 µM [inhibitor, single point]"}]}]}
